Data: the supplement of paper PMC11383711
The other results are listed elsewhere or left out. Binding of human antibodies (heavy:light variable regions, tested as scFv in one mRNA-display pool) to influenza hemagglutinin, with or without the stem antibody CR9114 bound first. Score = (mean enrichment − median) / interquartile range of that screen; higher = more enriched, 0 = typical non-binder. Active = above the paper's cut-off per screen: stems 28; unblocked H1 Solomon Islands 5, H1 Michigan 3, H3 5, H5 19, H7 2.85, both B 5; blocked 9, 7, H5 10, H7 10, B Phuket 10, B Lee 11.5. Scores are scaled within each screen and are no affinities; replicates correlate at about 0.6 to 0.9, and antibodies rare in the pool are noisier.

B1: K77-1B07 (protein)
chain 1: QVQLVQSGAEVKKPGASVKVSCKASDYSLTNYYLHWVRQPPGQGLEWMGIIHPNGITTTYAQKFLGRVTMTRDTSTSTVYMELTSLRSDDTAVYYCARRGVVITSEGYHYYGLDVWGQGTTVTVSS
chain 2: EIVLTQSPGTLSLSPGERATLPCRASQSVSSSYLAWYQQKPGQAPRLLIYGASSRATGIPDRFSGSGSGTDFTLSISRLEPEDFAVYYCHHYGSTGTFGGGTKVEIK
B2: C1-2-2F03 (protein)
chain 1: VQLQESGPGLVKPSETLSLTCSVFGDSISSHYWSWIRQPPGKGLEWIGYIYYSSRTDYNPSLKSRVTISVDTSKNQVSLSLRSVTAADTAVYYCARTMDTSGWQPYYYGMDVWGQGTTVTVSS
chain 2: EIVLTQSPGTLSLSPGERATLSCRASHTVSSNNLAWYQQKPGQAPRLLIYGSSSRAYGIPDRFSGYGAGTDFTLTISRLEPEDFAVYYCQQYGSSPMYTFGQGTKVEIK
B3: K77-1B01 (protein)
chain 1: EVQLVESGGVVVQPGGSLNLSCAASGFTFDDYAMHWVRQTPGKGLEWVSLISWDGGHTYYADSVKGRFTISRDNSKNFLYLEGHSLRPEDTALYYCVRDPGAGNYYYYGMDVWGHGTTVTVSS
chain 2: DIVMTQSPDSLAVSLGERATINCKSSQSVLYRSNKKNYLAWYQQKPGQPPKLLIYWASTRESGVPDRFSGSGSGTDFTLTISSLQAEDVAVYYCQQYYTTPHTFGQGTKLEIK
B4: 051-10-2B05 (protein)
chain 1: EVQLVESGGGLVKPGGSLRVSCAASGFIFGTFGMNWVRQAPGKGLEWVSSISSASASIEYADAVKGRFTISRDNAEKSLYLQMNSLRADDTAVYYCARDGGVPRRYSLDVWGQGTTVTVSS
chain 2: QSALTQPASVSGSPGQSITISCTGTSSDVGAYNLVSWYQQHPGKAPKLMIFDVTNRPSGVSNRFSGSKSGDTASLTISGLQAEDEADYFCSSYTNTRTLLFGGGTKLTVL
B5: C1-2A02 (protein)
chain 1: VQLVESGGGLVQPGGSLRLSCVASGFDFNQYSMNWVRQAPGKGLEWLSYISSSAATVFYADSVQGRLTISRDNGKNSLFLQMNSLRVEDTAVYYCVREAVIVDGMPFEYWGQGALVTVSS
chain 2: EIVMTQSPGTLSVSPGESATLSCRASESVGSSLAWYQQKPGQAPRLLIFHTSTRATGVPARFSGSGSGTEFTLTISGMQSEDSGVYHCHQYKGWPPWTFGQGTKVEIK
B6: K77-1F01 (protein)
chain 1: EVQLVESGGGLVQPGGSLRLSCAASGFTFSSYGMNWVRQAPGKGLEWISDISSDRSTIYYADSVKGRFTISRDNAKNSLYLQMNSLRVEDTAVYYCARDFMSYFFDYWGQGTLVTVSS
chain 2: QSALTQPASVSGSPGQSITISCTGTSSDVGAYNYVSWYQQHPGKAPKLLIYDVNNRPSGVSNRFSGSKSGNTASLTISGLQAEDEADYYCNSYTSISTGVFGGGTNVT

Target: Influenza A H1N1 A/Michigan/45/2015 hemagglutinin ectodomain
Assay: mRNA display binding score; higher = more enriched on the antigen
Conditions: antigen blocked with: 2 µM CR9114 IgG
Method: (§1)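 A pool of natively paired antibodies, displayed as scFv on mRNA, was selected once on antigen-coated beads and sequenced before and after; two replicates.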

Binder | mRNA display binding score
B1 | inactive: -0.488
B2 | inactive: 0.239
B3 | inactive: -0.0579
B4 | inactive: 0.445
B5 | inactive: -0.461
B6 | inactive: 0.422

Same assay, conditions: antigen blocked with: nothing

Binder | mRNA display binding score
B1 | inactive: -0.694
B2 | inactive: 0.685
B3 | inactive: 0.344
B4 | inactive: -0.834
B5 | inactive: -0.504
B6 | inactive: 0.789

Target: Influenza A H1N1 A/Solomon Islands/3/2006 hemagglutinin ectodomain
Assay: as above
Conditions: antigen blocked with: 2 µM CR9114 IgG
Method: as §1

Binder | mRNA display binding score
B1 | inactive: -0.874
B2 | inactive: 0.623
B3 | inactive: 0.452
B4 | active: 15.6
B5 | inactive: -0.488
B6 | inactive: -0.0816

Same assay, conditions: antigen blocked with: nothing

Binder | mRNA display binding score
B1 | inactive: -0.286
B2 | inactive: 0.089
B3 | inactive: -0.331
B4 | inactive: 4.75
B5 | inactive: -0.172
B6 | inactive: 0.31

Target: Influenza A H3N2 A/Singapore/INFIMH-16-0019/2016 hemagglutinin ectodomain
Assay: as above
Conditions: antigen blocked with: nothing
Method: as §1

Binder | mRNA display binding score
B1 | inactive: -0.428
B2 | inactive: 0.283
B3 | inactive: 0.114
B4 | inactive: -0.42
B5 | inactive: -0.511
B6 | inactive: 0.424

Target: Influenza A H5N1 A/Qinghai/1A/2005 hemagglutinin ectodomain
Assay: as above
Conditions: antigen blocked with: 2 µM CR9114 IgG
Method: as §1

Binder | mRNA display binding score
B1 | inactive: -0.606
B2 | inactive: 1.17
B3 | inactive: 0.0293
B4 | inactive: 1.02
B5 | inactive: -0.577
B6 | inactive: 0.124

Same assay, conditions: antigen blocked with: nothing

Binder | mRNA display binding score
B1 | inactive: -0.514
B2 | inactive: -0.0649
B3 | inactive: 0.288
B4 | inactive: -0.281
B5 | inactive: -0.518
B6 | inactive: 0.437

Target: Influenza A H7N9 A/Shanghai/2/2013 hemagglutinin ectodomain
Assay: as above
Conditions: antigen blocked with: 2 µM CR9114 IgG
Method: as §1

Binder | mRNA display binding score
B1 | inactive: -0.803
B2 | inactive: 1.3
B3 | inactive: -0.352
B4 | inactive: 0.279
B5 | inactive: -0.37
B6 | inactive: -0.0225

Same assay, conditions: antigen blocked with: nothing

Binder | mRNA display binding score
B1 | inactive: -0.567
B2 | inactive: 0.546
B3 | inactive: 0.262
B4 | inactive: -0.398
B5 | inactive: -0.258
B6 | inactive: 0.719

Target: Influenza B/Lee/1940 hemagglutinin ectodomain
Assay: as above
Conditions: antigen blocked with: 2 µM CR9114 IgG
Method: as §1

Binder | mRNA display binding score
B1 | inactive: 1.28
B2 | inactive: 0.656
B3 | inactive: -0.0985
B4 | inactive: -0.555
B5 | inactive: 1.84
B6 | inactive: -0.287

Same assay, conditions: antigen blocked with: nothing

Binder | mRNA display binding score
B1 | inactive: 0.0341
B2 | inactive: -0.1
B3 | inactive: -0.0307
B4 | inactive: 0.169
B5 | inactive: -0.165
B6 | inactive: -0.172

Target: Influenza B/Phuket/3073/2013 hemagglutinin ectodomain
Assay: as above
Conditions: antigen blocked with: 2 µM CR9114 IgG
Method: as §1

Binder | mRNA display binding score
B1 | inactive: 0.00249
B2 | inactive: -0.281
B3 | inactive: 0.0967
B4 | inactive: -0.294
B5 | inactive: -0.325
B6 | inactive: 0.242

Same assay, conditions: antigen blocked with: nothing

Binder | mRNA display binding score
B1 | inactive: 0.575
B2 | inactive: 0.0774
B3 | inactive: -0.0679
B4 | inactive: 0.207
B5 | inactive: 0.37
B6 | inactive: -0.0756
